Measured values as given in the supplement of paper PMC3334620.
Over roughly 33,000 sequences, “E-score (-0.5 to 0.5)” has its median near -0.036; the highest 2% begin near 0.37. The list shows a part of the results.

molecular target: T1, Yer064c (UniProt P40041); assay: PBM E-score (8-mer binding enrichment) (E-score (-0.5 to 0.5)); higher = stronger / more preferred TF binding; most listed sequences are background and not binding sites; details: protein concentration: 200 nM; construct: GST-full length
T1 sequence: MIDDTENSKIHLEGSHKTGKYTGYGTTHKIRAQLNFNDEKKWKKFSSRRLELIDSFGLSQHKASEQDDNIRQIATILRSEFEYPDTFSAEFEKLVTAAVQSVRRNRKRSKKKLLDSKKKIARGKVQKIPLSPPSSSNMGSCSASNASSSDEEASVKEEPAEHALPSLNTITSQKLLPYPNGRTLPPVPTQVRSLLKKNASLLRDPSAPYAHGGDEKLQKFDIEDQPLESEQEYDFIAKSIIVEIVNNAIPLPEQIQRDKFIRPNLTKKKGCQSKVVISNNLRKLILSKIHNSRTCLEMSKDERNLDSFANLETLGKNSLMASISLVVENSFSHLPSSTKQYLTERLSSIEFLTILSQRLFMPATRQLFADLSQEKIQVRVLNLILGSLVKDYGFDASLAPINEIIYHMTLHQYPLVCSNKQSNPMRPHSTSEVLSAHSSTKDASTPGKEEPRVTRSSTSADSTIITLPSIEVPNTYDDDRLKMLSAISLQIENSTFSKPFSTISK
Procedure, shortened: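 Universal all-10-mer Agilent arrays, fresh or stripped once, were converted to double-stranded form by primer extension. GST-tagged yeast transcription factors from PURExpress in vitro transcription/translation, full-length or DNA-binding domain only, were applied at about 100-200 nM and detected with fluorescent anti-GST. After masliner normalisation, the Universal PBM Analysis Suite scored each ungapped eight-base word together with its reverse complement by E-score.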

Row | Sequence | PBM E-score
1 | CTACATCC | -0.155
2 | CATAAGTC | 0.297
3 | CAGTACAC | 0.0327
4 | CCCCAACC | -0.144
5 | GGACGTCC | -0.318
6 | GAAATGCC | -0.309
7 | AGAAAGAC | 0.192
8 | CAGAACAG | -0.00858
9 | GATTTCGA | 0.144
10 | AGCGGTGA | 0.0907
11 | ACTAAGAG | 0.113
12 | AGTAATAA | 0.204
13 | AGGCCGTA | 0.0443
14 | CGCATGCA | -0.0148
15 | AGTCCATC | 0.204
16 | TATCGGAA | 0.215
17 | AATCCCAG | -0.0564
18 | CTAGCGAC | 0.158
19 | GTCGCTTA | 0.218
20 | GTGCCCTA | -0.317
21 | CGTCGCGA | -0.101
22 | ACCTGGCT | -0.167
23 | AACATGAC | 0.283
24 | TCGGCTCA | 0.134
25 | GAGTACGA | 0.307

Row | Sequence | PBM E-score
26 | GCCATGGA | 0.0454
27 | GCAGTATA | -0.224
28 | GGTCGGTA | -0.162
29 | AGACTGAT | 0.219
30 | CACTCTGC | -0.0532
31 | CGGGGGCC | -0.234
32 | GTCCGTGA | 0.156
33 | CGTCAAGC | -0.169
34 | CAAGAAGG | -0.15
35 | AATGTTCA | -0.0663
36 | GTGGACCA | -0.0966
37 | CGTTTGTC | -0.0205
38 | GATTGCCC | 0.0184
39 | ACTGCTTC | -0.286
40 | CTAACCAC | 0.232
41 | AGGACTAG | 0.275
42 | GATGCACC | -0.233
43 | TTCAAGAA | 0.169
44 | TCCTAGCA | -0.168
45 | CCGAATGC | -0.255
46 | GGTTGTAA | -0.0256
47 | CGGGCCGA | -0.176
48 | GCGGGGAA | -0.0375
49 | GAAGGCCC | -0.317
50 | CCTTCCCG | -0.152

Row | Sequence | PBM E-score
51 | AGAAAAAG | -0.0405
52 | CTGCCAAG | -0.121
53 | AGTCAGGA | 0.417
54 | AGGGAAGC | -0.284
55 | TCGAGAAA | -0.00532
56 | ACATAGCA | -0.0756
57 | TAGGAATA | -0.0475
58 | ACTGCTCG | 0.0783
59 | CTATTTAA | 0.196
60 | AGTCTGAG | 0.266
61 | ATCGCGGG | 0.00034
62 | AGTTAAGG | 0.102
63 | ATTTTATG | 0.00402
64 | CTACGTGC | -0.106
65 | GCAGAAGA | -0.16
66 | AGACATAA | 0.0973
67 | CCAGTACG | -0.0016
68 | GTCTTTAA | 0.194
69 | CCGTATAG | -0.0352
70 | ACACTCCC | -0.114
71 | CATTTTCA | 0.0573
72 | GGTCCGTA | -0.292
73 | CAGGAATA | 0.113
74 | ATTTAATC | 0.366
75 | CCAAGTTA | 0.0576

Row | Sequence | PBM E-score
76 | TTCCGAAA | -0.12
77 | TAAGTACA | 0.0696
78 | ATCATAAA | 0.25
79 | GGAATAAA | 0.00873
80 | CGGACCTA | -0.189
81 | GGGTCCAA | 0.00332
82 | GGATGGAA | -0.278
83 | AATGGCCT | -0.324
84 | ACAGCGTC | 0.0799
85 | CACTGGAG | -0.158
86 | AGGAGCCT | -0.34
87 | ATCAGCAG | 0.0714
88 | CGGACGCC | -0.192
89 | ACATCCGG | -0.118
90 | GCTTGGGA | -0.125
91 | GGTTCGCA | -0.1
92 | CTGGCTTA | -0.0807
93 | AATTTTAA | 0.0277
94 | ATTAAATG | 0.156
95 | AATGAGTA | 0.389
96 | GCGGTGCA | -0.182
97 | ATAGCCAA | 0.0259
98 | GGTAAAGA | -0.00478
99 | CTGTACCC | -0.0155
100 | CGTCTGAA | 0.0534

Row | Sequence | PBM E-score
101 | ACCTTCCG | -0.124
102 | AAATGCCC | -0.188
103 | ACGATTTG | 0.152
104 | CTATTAGC | 0.123
105 | AACTGGGT | -0.0453
106 | ATCATTTC | 0.289
107 | ATACAACG | -0.0924
108 | AGTACAAG | 0.0542
109 | AACACCAA | -0.0476
110 | ACAGCACG | 0.064
111 | CGCGTCGA | -0.0197
112 | AAAGGCAC | -0.285
113 | ACTACTCA | 0.344
114 | ACGTACGT | -0.0674
115 | CTAAAACC | -0.0517
116 | CGGCCTAG | -0.147
117 | ACCGAGCG | -0.138
118 | ACATACGA | 0.148
119 | ATTAAAGA | 0.195
120 | ATGTTTGC | -0.249
121 | TCGTTCCA | -0.108
122 | AGTACTGG | 0.0972
123 | ACATCGTA | 0.0891
124 | GTGATGGA | 0.113
125 | TCCGTGCA | 0.023

Row | Sequence | PBM E-score
126 | TAGTCCAA | 0.219
127 | AGGCCTGG | -0.23
128 | ACACAGCG | 0.0981
129 | CGTTCCAC | -0.25
130 | CAACCTTA | -0.0758
131 | ATAGACTC | 0.304
132 | CAGACTAC | 0.215
133 | CTTAATTA | 0.173
134 | CAAGCCAA | 0.026
135 | GAGTAGCA | 0.0271
136 | ACTCACCT | 0.338
137 | AAAGAGCA | -0.0916
138 | ACAGAGTC | 0.37
139 | GTTACCAA | 0.0378
140 | CGGGACAG | -0.136
141 | AGCGCCAA | -0.105
142 | GTTGCTCA | 0.0437
143 | GAGTTTCC | -0.122
144 | CCGAGAGA | -0.0688
145 | CGGACAGC | -0.187
146 | AGTTATAT | 0.0648
147 | AACTCATA | 0.275
148 | ACGCGCGA | -0.0257
149 | GTACGAAA | 0.0773
150 | ACTCTAGG | 0.0145

Row | Sequence | PBM E-score
151 | GAACTATA | -0.0145
152 | AGGGCCTG | -0.22
153 | ATTGCCTG | 0.0794
154 | GAACATTA | -0.197
155 | AACTGATG | 0.11
156 | CACGGATG | 0.113
157 | CCATCACA | -0.108
158 | AAGCGCCC | -0.248
159 | AAAGGGTA | -0.137
160 | CAAGGGGA | 0.0449
161 | TCAAATCA | 0.278
162 | CGAGTCTA | 0.132
163 | AAAAACCT | 0.111
164 | CTGCCCGA | -0.0647
165 | AGCAACCA | 0.103
166 | CGGTGACC | 0.0215
167 | AAATCGGC | -0.314
168 | AGTATTAG | 0.0843
169 | CAATGTCC | -0.146
170 | ATCAGCCC | 0.126
171 | CCATATTC | -0.159
172 | ACCTTCGG | 0.0198
